Consider 57 compounds from article PMC4336329 (PLoS ONE, 2015).

Among all 310,000 compounds or so, about 2,200 (0.71%) showed an effect of 50% or more. Effects have a minus sign here. The list shows a part of the results.

For the assay, the target named is human ether-à-go-go-related gene (hERG) potassium channel (human, UniProt Q12809). In words: primary screen, population patch clamp on CHO cells stably expressing hERG.
Sequence of human ether-à-go-go-related gene (hERG) potassium channel (Q12809 whole entry, looked up): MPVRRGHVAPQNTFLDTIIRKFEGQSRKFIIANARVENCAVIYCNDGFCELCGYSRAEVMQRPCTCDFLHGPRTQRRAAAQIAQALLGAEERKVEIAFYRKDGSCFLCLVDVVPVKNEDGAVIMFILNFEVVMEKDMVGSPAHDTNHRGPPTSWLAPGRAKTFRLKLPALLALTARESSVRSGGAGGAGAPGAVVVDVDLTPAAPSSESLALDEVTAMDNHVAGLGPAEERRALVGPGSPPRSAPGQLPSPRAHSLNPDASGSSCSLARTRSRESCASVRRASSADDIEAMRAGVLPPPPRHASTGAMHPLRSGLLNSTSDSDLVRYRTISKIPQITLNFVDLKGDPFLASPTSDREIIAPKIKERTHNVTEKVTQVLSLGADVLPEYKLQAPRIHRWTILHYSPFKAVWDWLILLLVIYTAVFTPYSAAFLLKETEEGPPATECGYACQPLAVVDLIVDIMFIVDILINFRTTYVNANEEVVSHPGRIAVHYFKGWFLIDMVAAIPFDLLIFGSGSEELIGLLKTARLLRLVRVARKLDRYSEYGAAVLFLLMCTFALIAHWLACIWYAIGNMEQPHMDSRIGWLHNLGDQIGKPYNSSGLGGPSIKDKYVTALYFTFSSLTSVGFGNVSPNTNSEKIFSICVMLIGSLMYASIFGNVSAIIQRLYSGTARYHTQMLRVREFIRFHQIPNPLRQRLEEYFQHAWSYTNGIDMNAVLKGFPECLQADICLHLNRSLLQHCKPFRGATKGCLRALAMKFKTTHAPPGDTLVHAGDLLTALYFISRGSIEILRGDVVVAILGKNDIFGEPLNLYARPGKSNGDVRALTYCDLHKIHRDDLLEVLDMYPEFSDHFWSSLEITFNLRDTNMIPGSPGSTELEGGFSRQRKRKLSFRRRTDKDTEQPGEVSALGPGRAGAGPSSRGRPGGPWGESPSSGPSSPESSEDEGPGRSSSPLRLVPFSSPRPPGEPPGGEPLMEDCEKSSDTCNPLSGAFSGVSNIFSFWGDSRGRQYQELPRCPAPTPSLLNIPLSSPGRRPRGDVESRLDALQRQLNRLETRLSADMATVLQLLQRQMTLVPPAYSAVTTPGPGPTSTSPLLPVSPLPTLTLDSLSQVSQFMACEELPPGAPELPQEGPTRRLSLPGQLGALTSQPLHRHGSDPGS
On to `O=C(O)C1CCCN(S(=O)(=O)Cc2ccccc2)C1` (stereo not drawn), for which the “hERG current change (%, negative = inhibition) at 1uM” value was determined as 7.9%. The same measure for `Cc1ccc(S(=O)(=O)NCCC(=O)Oc2ccc3ccc(=O)oc3c2)cc1`: 5.43%. The same measure for `C=CCNC(=O)CSc1nnc(-c2ccncc2)n1CCc1ccccc1`: 4.61%; for `O=C(Nc1ccccc1C(=O)Nc1ccncc1)c1ccc([N+](=O)[O-])cc1`: 11.9%; for `COC(=O)c1cc(OC)c(OC)cc1NC(=O)c1cccc(C)c1`: 8.73%. Turning to `CC(C)(C)NC(=O)CC(c1ccccc1)c1ccccc1O` (stereo not drawn), the “hERG current change (%, negative = inhibition) at 1uM” value came to 15.1%. In the case of `C=CCOc1cccc(/C=C2\C(=O)N(Cc3ccc(C)cc3)C(C)=C2C(=O)OC)c1` it was 11.6%. The same measure for `Cc1cc(C(=O)N2CCN(C/C=C/c3ccccc3)CC2)no1`: -5.15%; for `Cl.N=c1sccn1CC(=O)NCc1ccc(Cl)cc1Cl`: 7.91%; for `COc1ccc(NC(=O)CN2CCCCC2)cc1.O=C(O)C(=O)O`: 10.6%. The same measure for `OCc1nc2ccccc2n1CCCOc1ccccc1`: -0.689%. For the compound `CCOC(=O)N1CCC(NC(=O)CSCc2nc(-c3ccc(OC)c(OC)c3)oc2C)CC1`, the “hERG current change (%, negative = inhibition) at 1uM” value is on record as 12.2%. Turning to `NC(=O)CSCc1cccc(Br)c1`, the “hERG current change (%, negative = inhibition) at 1uM” value is listed as 14%.

For `NS(=O)(=O)c1cccc(NC(=O)CSc2n[nH]c(-c3cccs3)n2)c1`, the “hERG current change (%, negative = inhibition) at 1uM” value is recorded as 3.46%.

With `CN(C)C=O.N#Cc1ccccc1OCC(=O)OCC(=O)c1ccc2c(c1)NC(=O)CO2`, the “hERG current change (%, negative = inhibition) at 1uM” value was found to be 11.6%. Consider `Cc1ccc(Cn2nc(C)c(C(=O)NCC(c3ccc(F)cc3)N3CCOCC3)c2Cl)cc1` (stereo not drawn), for which the “hERG current change (%, negative = inhibition) at 1uM” value stood at 3.02%.

With `NCCCC[C@@H]1NC(=O)c2cc([N+](=O)[O-])cc(I)c2SC[C@@H](C(N)=O)NC(=O)[C@H](CCC(N)=O)NC1=O`, the “hERG current change (%, negative = inhibition) at 1uM” value was found to be 19.9%.

On to `CC1CCCCN1C(=O)CSc1nc(N)cc(=O)[nH]1` (stereo not drawn), for which the “hERG current change (%, negative = inhibition) at 1uM” value is 13.4%. The same measure for `O=C(c1cccc([N+](=O)[O-])c1)N1CCN(Cc2ccc3c(c2)OCO3)CC1`: 3.14%; for `O=C(CN1CCCc2ccccc21)NC(=O)NCc1ccccc1`: 9.1%. Turning to `CC(C)(O)C#Cc1ccc(CN2CCCC(CO)(Cc3cccc(Cl)c3)C2)cc1` (stereo not drawn), the “hERG current change (%, negative = inhibition) at 1uM” value was -7.53%. In the case of `CCOC(=O)Cc1nn(Cc2nc(-c3ccc(C#N)cc3)cs2)c(=O)c2ccccc12` it was -4.66%; in that of `Cc1ccc(NC(=O)CN2CCCC2)cc1.Cl`, 17.9%. In the case of `CCOC(=O)C1=C(C)NC2=C(C(=O)CC(C)(C)C2)C1c1ccsc1` (stereo not drawn) it was 9.2%; in that of `COc1ccc(C(=O)NCCNC(=O)c2ccccn2)cc1`, 17.2%. The same measure for `CC[C@@H](Nc1ncnc2c1oc1ccccc12)C(=O)O`: 5.98%; for `O=C1CCCC/C1=C/Nc1ccc(S(=O)(=O)Nc2ncccn2)cc1`: 4.37%. As to `O=C1CC(c2ccccc2Oc2cccc(Cl)c2)C(n2cncn2)C(=O)C1C1NCCc2ccccc21` (stereo not drawn), the “hERG current change (%, negative = inhibition) at 1uM” value came to 4.67%. As to `Nc1ccc(Oc2ccc3nc(-c4ccccc4)c(-c4ccccc4)nc3c2)cc1`, the “hERG current change (%, negative = inhibition) at 1uM” value worked out at 3.57%.

For the compound `Cc1ccc2nc(NC(=O)C3CCCN(S(=O)(=O)c4cccc5nsnc45)C3)sc2c1` (stereo not drawn), the “hERG current change (%, negative = inhibition) at 1uM” value is given as 11.6%. The same measure for `Clc1ccc(-n2nnc(-c3cccnc3)n2)cc1Cl`: -32.7%. In the case of `O=C(COC(=O)CCCOc1ccc(Cl)cc1Cl)NCc1ccc(F)cc1` it was 7.81%; in that of `COC(=O)Cc1ccc(NC(=O)c2ccccc2Br)cc1`, 13.6%.

Take `O=C(Nc1sc2c(c1C(=O)O)CCCCC2)c1cccs1`: the “hERG current change (%, negative = inhibition) at 1uM” value is 23.2%. As for `CCOC(=O)/C(C#N)=C/c1cn(CCOc2ccccc2)c2ccccc12`, the “hERG current change (%, negative = inhibition) at 1uM” value turned out to be 12.8%.

Regarding `CN1CCN(C(=O)c2cc3sc4ccccc4c3s2)CC1`, the “hERG current change (%, negative = inhibition) at 1uM” value is 12.7%. The same measure for `Cc1csc(NC(=O)c2ccc3ccccc3n2)n1`: 10.2%; for `COc1cc(Cl)c(S(=O)(=O)n2cnc(C)c2)cc1Cl`: 0.732%. The same measure for `CC1(C)NC(=O)N(CC(=O)NNC(=O)c2ccccc2F)C1=O`: 12%. In the case of `COc1cccc(NC(=O)CCC(=O)NCc2ccco2)c1`, the “hERG current change (%, negative = inhibition) at 1uM” value was found to be 14.9%.

Turning to `O=S(=O)(c1ccc(F)cc1)N1CCC2(CC1)OCCO2`, the “hERG current change (%, negative = inhibition) at 1uM” value was determined as 12%. In the case of `O=C(CCSCc1ccccc1F)NCc1cccnc1` it was 16%; in that of `COc1ccc(S(=O)(=O)CCC(=O)N2CCN(c3ccc(C(C)=O)cc3)CC2)cc1`, -3.87%.

As to `COc1cccc(NC(=O)CSc2nc3c(c(-c4ccco4)c2C#N)CCCC3)c1`, the “hERG current change (%, negative = inhibition) at 1uM” value is listed as 15.4%. Turning to `Cc1cc(S(=O)(=O)N2CCC3(CC2)OCCO3)c(C)cc1Cl`, the “hERG current change (%, negative = inhibition) at 1uM” value is 8.92%.

As for `O=C(CN1C(=O)CC(c2ccco2)Sc2ccccc21)Nc1ccccc1F` (stereo not drawn), the “hERG current change (%, negative = inhibition) at 1uM” value is recorded as -1.2%.

In the case of `O=C(c1ccc2c(c1)OCO2)C1CCCN(Cc2ccccn2)C1` (stereo not drawn), the “hERG current change (%, negative = inhibition) at 1uM” value is recorded as -13%. The same measure for `CN(C)CCN(C(=O)c1ccc(N2C(=O)CCC2=O)cc1)c1nc2cc3c(cc2s1)OCCO3.Cl`: 8.44%; for `Cc1cc(NC(c2cccnc2)c2ccc3cccnc3c2O)no1` (stereo not drawn): 8.74%. As to `Nc1c(C(=O)NCc2ccco2)sc2nc(N3CCOCC3)c3c(c12)CCCC3`, the “hERG current change (%, negative = inhibition) at 1uM” value was found to be 4.34%. In the case of `CC(=O)c1cccc(NC(=O)c2cc(-c3ccc(F)cc3)on2)c1` it was -4.73%; in that of `Brc1cccc(-c2nnc(-c3ccccc3)o2)c1`, 11.8%; in that of `O=C(O)c1cccc(Oc2ccccc2[N+](=O)[O-])c1`, 11.9%.

For `CCOc1ccc(C(=O)NCC(=O)NCC(c2ccccc2OC)N2CCCC2)cc1` (stereo not drawn), the “hERG current change (%, negative = inhibition) at 1uM” value is -2.46%. In the case of `COCCCn1c(Cc2csc(Nc3ccccc3)n2)nnc1SCC(N)=O` it was 16.9%. On to `Cc1ccc2[nH]c(=O)c(CN(CCO)C(=O)N(C)C)cc2c1`, for which the “hERG current change (%, negative = inhibition) at 1uM” value stood at 5.65%.

For the compound `CCC(C)NC(=O)C1CCC(CNS(=O)(=O)c2ccccc2)CC1` (stereo not drawn), the “hERG current change (%, negative = inhibition) at 1uM” value is 15.5%.
